PubChem BioAssay AID686978 (National Center for Advancing Translational Sciences (NCATS), 2013)
Several values for one entry are separate records, joined by “and”; a condition that tells them apart may be missing. Equal values may be shown once. Out of some 420,000 compounds screened, about 64,000 (15%) were called active. Inconclusive results, whose numbers are uncertain, are shown with a selection of clear calls. The call rests on the fitted dose curve; in most records, active means well fitted inhibition curve with a large enough effect; inconclusive means small, poorly fitted or top-dose-only effect; inactive means flat fitted curve, though single readings scatter. No potency is given beside an inconclusive call; the fits are too rough.

assay: qHTS for Inhibitors of human tyrosyl-DNA phosphodiesterase 1 (TDP1): qHTS in cells in absence of CPT; details: DT40 Tdp1-/- hTDP1 cells, no CPT, ATP luminescence, 48 h; activity change, negative = growth inhibition: at 46.2 µM (top of the series) unless noted; further: nearly all actives have a fitted effect of over 55% in size
Summary of the method: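 Growth kinetics read by CellTiter-Glo luminescence after ≥48 hr at 37 °C. Cells: DT40 Tdp1-/- stably carrying human TDP1, 400 per well, compound exposure in the absence of CPT (DMSO vehicle).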
On the % scale 0 is the no-effect control and ±100 the full control effect; potency means the concentration at half of the fitted maximal effect; tags describe the fitted curve by direction and shape.

Row | Structure (SMILES) | Potency | activity change, negative = growth inhibition
1 | CC(=O)c1ccc(C(=O)Nc2nnc(-c3ccc(Cl)cc3)o2)cc1 | active: 9.2 µM | –
2 | CN(C)c1ccc(NC(=S)c2ccc3ccccc3n2)cc1 | inconclusive [inhibitor, single point] | –
3 | Cc1ccc(C)c(NC(=S)NNC(=O)c2sccc2C)c1 | inactive | –
4 | COc1ccc(C)cc1Nc1c2c(nc3ccccc13)CCC2 | active: 651 nM and active: 2.59 µM | –
5 | Cc1ccc(NC(=S)NCc2ccc(Cl)cc2)c(C)c1 | inconclusive [inhibitor, single point] | –
6 | O=C(c1ccc(Cl)cc1)N1CCC(c2nc(-c3cccs3)no2)CC1 | inconclusive [inhibitor, single point] | –
7 | O=C(CCS(=O)(=O)c1ccccc1)N1CCN(c2ccccc2)CC1 | inactive | –
8 | CCCn1nc(C(=O)Oc2ccc3c(C)cc(=O)oc3c2)c2ccccc2c1=O | inconclusive [inhibitor, single point] | –
9 | N#C/C(=C\c1ccc(N2CCCCC2)o1)C(N)=O | inactive | –
10 | O=C(NCC(c1ccc(F)cc1)N1CCOCC1)c1ccc(-c2ccccc2)cc1 (configuration not stated) | inconclusive [inhibitor, single point] | –
11 | CC(C)NC(=O)c1cc(C2CCCCN2S(=O)(=O)c2cccc3cccnc23)on1 (configuration not stated) | inactive | –
12 | OCc1cn(-c2ccccc2)nc1-c1ccc2c(c1)OCCO2 | active: 23.1 µM | –
13 | Cc1ccc(C(=O)NCCSc2snnc2C)cc1 | inconclusive [inhibitor, single point] | –
14 | CN(c1cccc(NC(=O)Cc2ccccc2)c1)S(C)(=O)=O | inconclusive [inhibitor, single point] | –
15 | CCc1nc2c(OCC(=O)C(C)(C)C)cccn2c1N(C=O)CC(=O)N(C)C | inactive | –
16 | O=C(O)c1ccccc1C(=O)OCC1CCC(=NO)CC1 (configuration not stated) | inactive | –
17 | FC(F)(F)c1ccccc1-c1ccc2ncnc(NCc3cccnc3)c2c1 | active: 7.31 µM | –
18 | CC(C)N(Cc1nc(-c2ccccc2)no1)C(=O)CSc1ccccc1 | inconclusive [inhibitor, single point] | –
19 | CC(C)(C)C(=O)Cn1c(=O)n(CCCCCC(=O)NCc2ccccc2Cl)c(=O)c2sccc21 | active: 20.6 µM | –
20 | CCc1cccc2c(C=C(C#N)C#N)cn(CC(=O)N3CCCCCC3)c12 | inactive | –
21 | CC(=O)N1CCc2cc(S(=O)(=O)NCC(=O)NCc3ccc(F)cc3)ccc21 | inactive | –
22 | CCCCN(CC)C(=O)CSc1cc(=O)n(C)c2ccccc12 | inconclusive [inhibitor, single point] | –
23 | Cc1ccc(NC(=O)C(Cc2ccccc2)NS(=O)(=O)c2ccc3c(c2)oc(=O)n3C)cc1C (configuration not stated) | inactive | –
24 | NC(=O)CC(NC(=O)Cc1cccc2ccccc12)c1ccc(NCc2cc(F)ccc2F)c([N+](=O)[O-])c1 (configuration not stated) | active: 29.1 µM | –

Row | Structure (SMILES) | Potency | activity change, negative = growth inhibition
25 | CC1=C(C(=O)OCc2ccccc2)C(c2ccco2)n2ncnc2N1 (configuration not stated) | inconclusive [inhibitor, partial curve] | –
26 | Cc1ccc(OCC(=O)Nc2ccc3c(c2)C(=O)NC3=O)c(C)c1 | – | inconclusive: -31.6% [inhibitor]
27 | COc1ccc(CN2CCN(Cc3c[nH]c4ccccc34)CC2CCO)cc1C (configuration not stated) | active: 9.2 µM | –
28 | COC(=O)c1cc(-c2ccccc2)sc1NC(=O)CN1C(=O)c2ccccc2C1=O | inactive | –
29 | Cc1ccc(N(Cc2cc3ccccc3[nH]c2=O)C(=O)c2cccs2)cc1C | active: 18.4 µM | –
30 | O=C(CCN1C(=O)S/C(=C\c2ccc(Cl)cc2)C1=O)Nc1ccc(C(=O)O)cc1 | inactive | –
31 | COc1ccccc1-c1ccnc(-n2ncc(C(=O)NCCc3ccccn3)c2C)n1 | inconclusive [inhibitor, partial curve] | –
32 | O=C(Cc1ccccc1)Nc1nc2ccccc2s1 | inconclusive [inhibitor, single point] | –
33 | CCC(=O)N1CCC1(C)C(=O)Nc1ccc(F)cc1 (configuration not stated) | inactive | –
34 | CSc1ccccc1NC(=O)CN(C)CC(=O)Nc1ccccc1N1CCOCC1 | inconclusive [inhibitor, full curve, poor fit] | –
35 | COC(=O)c1c(C)oc2ccc(N(C(=O)Oc3ccccc3)S(=O)(=O)c3ccc(Cl)c([N+](=O)[O-])c3)cc12 | active: 20.6 µM | –
36 | Cc1ccc2cc(CN(CC3CCCO3)C(=S)Nc3ccccc3)c(=O)[nH]c2c1C (configuration not stated) | active: 2.59 µM | –
37 | Cc1ccnc(SC2CC(=O)N(c3ccc([N+](=O)[O-])cc3)C2=O)n1 (configuration not stated) | inconclusive [inhibitor, single point] | –
38 | COc1cccc(CN(C)C(=O)c2cc(S(=O)(=O)N3CCCCCC3)ccc2OC)c1 | inconclusive [inhibitor, single point] | –
39 | CC1(C(=O)NS(=O)(=O)c2ccccc2C(F)(F)F)CCN1C(=O)C1CCCCC1 (configuration not stated) | inactive | –
40 | Cc1ccc([C@@H]2C[C@H]3[C@@H](CN2S(=O)(=O)c2ccc(C)cc2)C(=O)C[C@@H](c2cccc(Cl)c2)N3S(=O)(=O)c2ccc(C)cc2)cc1 | inconclusive [inhibitor, full curve] | –
41 | CCCCNC(=O)C1(C)CCN1C(=O)c1c(F)ccc(C)c1F (configuration not stated) | inconclusive [inhibitor, partial curve, poor fit] | –
42 | O=C(NNC(=O)c1c(F)cccc1F)c1ccccc1-n1cccc1 | inactive | –
43 | CCN(C1CCCCC1)S(=O)(=O)c1cn(C)c(=O)n(C)c1=O | inconclusive [inhibitor, partial curve] | –
44 | COc1ccc(Nc2cc(C(=O)NCCCN3CCOCC3)c3ccccc3n2)cc1OC | inconclusive [inhibitor, partial curve, poor fit] | –
45 | COc1cc(/C=N/NC(=O)c2cc(-c3cccc(OC(C)C)c3)nc3ccccc23)ccc1O | active: 2.06 µM | –
46 | CC(C)=CCN1CCC2(CCc3ccccc32)CC1 | active: 20.6 µM | –
47 | Cc1ccc(S(=O)(=O)CC(=O)Nc2nc(C(C)(C)C)cs2)cc1 | inconclusive [inhibitor, partial curve] | –
